This test deals with Genes associated with the autophagy pathway. The experiment in a line: Nanostring gene expression in STHdh 111/111 cells: genes associated with the autophagy pathway. Format: cell-based, mouse. How it is done:
Gene expression of certain transcripts of interest were measured using Nanostring Technology. […] Some STHdh 7/7 and STHdh 111/111 cell samples were not heat shocked and some wells were treated with Compound 22 at the indicated concentration on for 48 hours (Table 12). Some STHdh 7/7 and STHdh 111/111 cell samples were heat shocked for 3 hours some wells were treated with Compound 22 at the indicated concentration on for 48 hours (Table 13). Cells are washed with PBS, trypsinised, and gathered in a 15 ml falcon tube. After a short spin down for 3 minutes at 300 g, the cell pellet was washed with PBS once, before it was frozen down in liquid nitrogen. RNA was extracted with a standard protocol. The nCounter® Mouse Neuropathology Panel (Nanostring, Seattle) was used for gene expression analysis according to the manufacturer’s protocols.

On to `Cc1[nH]c2ccc(C(=O)NCCN(C(C)C)C(C)C)cc2c1C` [Compound 22], for which the “expression of genes associated with the autophagy pathway” value (10 µM or 20 µM, in comparison to untreated cells) is listed as “upregulated”. The “upregulation of Slc1a1, Ctse, Atp6vlh, Atp6v0d1, Ap3s1, Lamp1, Cd68, Gsub, Gba, Man2bl, Ppt1, Hexb, Npc1 and Gga1” value (20 µM) is on record as ≥ 1 time the standard deviation from the mean.

These data come from patent publication US20230218573A1, “INDOLE COMPOUNDS FOR THE TREATMENT OF NEURODEGENERATIVE DISEASES” (GALYAN BIO, INC., priority 2020, published 2023).
